{"source": "the supplement of paper PMC10986608", "note": "The other results are listed elsewhere or left out. Many values rest on one well or one pass, so single values are uncertain.", "data": [{"tested_on": "Candida albicans DPL-15", "experiment": "growth (OD600) after compound treatment (apparently relative to screen median) (relative growth (fraction; screen median 1.02)); DPL-15 is a caspofungin-resistant clinical isolate; higher = more fungal growth (less antifungal activity)", "conditions": "25 µM; RPMI 1640; 48 h; 30 °C", "values": [{"smiles": "COC(=O)C1=C2CCCO[C@H]2[C@@H]2[C@@H](C)[C@H](OC)c3ccccc3[C@H]12", "growth": 0.964}, {"smiles": "C=C(C)[C@]1(O)C[C@@H](C)[C@]2(O)[C@@H]3CCC4(OCCO4)[C@@]34CC(C)=C[C@@]2(O4)[C@H]1OC(=O)Cc1ccccc1", "growth": 1.12}, {"smiles": "COC(=O)[C@@H]1[C@@H](O)[C@@]2(O)c3c(OC)cc(OC)cc3O[C@@]2(c2ccc(OC)cc2)[C@H]1c1cccc(F)c1", "growth": 1.45}, {"smiles": "COC(=O)[C@H]1[C@@H](O)[C@@]2(O)c3c(OC)cc(OC)cc3O[C@@]2(c2ccc(OC)cc2)[C@@H]1c1cccc(F)c1", "growth": 1.12}, {"smiles": "COC(=O)[C@H]1[C@@H](O)[C@@]2(O)c3c(OC)cc(OC)cc3O[C@@]2(c2ccc(OC)cc2)[C@@H]1c1ccccc1", "growth": 0.995}, {"smiles": "CCCCc1nc2c(c3c1C[C@H](C)OC3)CNCC2", "growth": 1.6}, {"smiles": "COc1ccc([C@@]23Oc4cc(OC)cc(OC)c4[C@]2(O)C(=O)C[C@H]3c2ccccc2)cc1", "growth": 0.946}, {"smiles": "CO[C@@]12c3c(C)cc(O)c4c(=O)occ(c34)C(=O)[C@@H]1[C@]13COC(=O)c4c(O)cc(C)c(c41)C(=O)[C@H]2[C@@H]3OC(C)=O", "growth": 1.03}, {"smiles": "Oc1c(Br)cc(Br)cc1-c1cc(Br)cc(Br)c1O", "growth": 0.853}, {"smiles": "COc1ccc([C@@]23Oc4cc(OC)cc(OC)c4[C@]2(O)[C@H](O)C[C@H]3c2ccccc2)cc1", "growth": 1.05}, {"smiles": "COc1ccc([C@@]23Oc4cc(OC)cc(OC)c4[C@]2(O)c2nc(-c4ccccc4Cl)[nH]c(=O)c2[C@H]3c2ccccc2)cc1", "growth": 1.04}, {"smiles": "COc1ccc([C@@]23Oc4cc(OC)cc(OC)c4[C@]2(O)c2nc(-c4cccc(C)c4)[nH]c(=O)c2[C@H]3c2ccccc2)cc1", "growth": 1.03}, {"smiles": "CC(=O)C1=C(C)OC2=C(C(=O)CCC2)[C@@]12C(=O)N(C)c1ccccc12", "growth": 1.06}, {"smiles": "CO[C@@H]1[C@H](O)CC[C@]2(O)CN(CCc3c[nH]c4ccccc34)[C@](C)([C@H](O)CC=C(C)C)[C@@H]12", "growth": 1.07}, {"smiles": "COC(=O)[C@H]1[C@H](c2ccccc2)[C@@]2(c3ccc(OC)cc3)Oc3cc(OC)cc(OC)c3[C@]1(O)[C@H]2O", "growth": 0.836}, {"smiles": "COC(=O)[C@@]12Oc3ccc(C4=CCNCC4)c(O)c3C(=O)C1=C(N)C[C@H](C)[C@H]2O", "growth": 1.07}, {"smiles": "COc1ccc([C@@]23Oc4cc(OC)cc(OC)c4[C@]2(O)c2nc(-c4ccc(Cl)nc4)[nH]c(=O)c2[C@H]3c2ccccc2)cc1", "growth": 1.17}, {"smiles": "COC(=O)[C@@H]1[C@@H](O)[C@@]2(O)c3c(OC)cc(OC)cc3O[C@@]2(c2ccc(OC)cc2)[C@H]1c1ccccc1", "growth": 1.02}, {"smiles": "COC(=O)C1=C2CCO[C@@H]2[C@H]2[C@@H](C)[C@H](OC)c3ccccc3[C@@H]12", "growth": 1.3}, {"smiles": "COC(=O)[C@@H]1[C@@H](c2ccccc2)[C@]2(c3ccc(Br)cc3)Oc3cc(OC)cc(OC)c3[C@@]1(O)C2(O)O", "growth": 1.01}, {"smiles": "CCOP(=O)(OCC)O/C(C=C(C)C)=C1/CCCCC1=O", "growth": 1.21}, {"smiles": "CC(C)=C/C(OP(=O)(Oc1ccccc1)Oc1ccccc1)=C1\\CCCCC1=O", "growth": 0.967}, {"smiles": "COc1ccc([C@@]23Oc4cc(OC)cc(OC)c4[C@]2(O)C2=C(C(=O)N4CCC[C@H]4N2)[C@H]3c2ccccc2)cc1", "growth": 0.919}, {"smiles": "COC(=O)C1=C(O)c2ccoc2[C@@]2(c3ccccc3)CCC[C@H]1C2", "growth": 1.05}, {"smiles": "COCC1=N[C@@]2(O)[C@H](C(=O)N(C)OC)[C@@H](c3ccccc3)[C@]3(c4ccc(OC)cc4)Oc4cc(OC)cc(OC)c4[C@]23N1", "growth": 0.984}, {"smiles": "CCCC[C@]12CCC[C@@H](C1)C(C(=O)OC)=C(O)c1ccoc12", "growth": 1}, {"smiles": "COc1ccc([C@@]23Oc4cc(OC)cc(OC)c4[C@]2(O)[C@H](O)[C@H](C(=O)N(C)OC)[C@H]3c2ccccc2)cc1", "growth": 0.986}, {"smiles": "COc1cc(F)cc2c1[C@]1(O)[C@H](O)[C@H](/C(N)=N/O)[C@@H](c3ccccc3)[C@]1(c1ccc(Br)cc1)O2", "growth": 1.01}, {"smiles": "COc1ccc([C@@]23Oc4cc(OC)cc(OC)c4[C@]2(O)[C@H](O)[C@H](C(=O)O)[C@H]3c2ccccc2)cc1", "growth": 1.08}, {"smiles": "COc1ccc([C@@]23Oc4cc(OC)cc(OC)c4[C@@]24NC(C)=N[C@@]4(O)[C@H](C(=O)N(C)C)[C@H]3c2ccccc2)cc1", "growth": 0.954}, {"smiles": "COc1ccc([C@@]23Oc4cc(OC)cc(OC)c4[C@]2(O)c2nc(-c4ccccc4)[nH]c(=O)c2[C@@H]3c2ccccc2)cc1", "growth": 0.908}, {"smiles": "CONC(=O)[C@H]1[C@@H](O)[C@@]2(O)c3c(OC)cc(OC)cc3O[C@@]2(c2ccc(Br)cc2)[C@@H]1c1ccccc1", "growth": 0.776}]}]}
